# According to PubChem BioAssay AID1508624 (National Center for Advancing Translational Sciences (NCATS), 2021):
# Among all 48,000 compounds or so, about 120 (0.25%) were called active. Another 4% or so got no clear call; they are omitted. Calls follow the shape of the dose curve; as a rule, active = well fitted activation curve with a large enough effect; inconclusive = small, poorly fitted or top-dose-only effect, or another doubt; inactive = no such curve, though single readings can be large or run the other way. The list shows a part of the results.
# Test: Primary qHTS for Identification of Small Molecule Activators of Huntingtin-Antisense Promoter Activity; also: nearly all actives have a fitted effect of over 55% in size
# Conditions: HEK293 HTT-AS promoter firefly luciferase reporter, 24 h; series mostly up to 57.5 µM; activity change, positive = activation: at the top concentration
# How it was run: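 HEK293 cells carrying firefly luciferase reporters were seeded at 2,500 per well in Opti-MEM and cultured for 24 h. They were then treated with compounds at up to 57.5 uM final for 24 h at 37 degrees C before Dual-Glo luminescence readout.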
# Potency is read from the fitted curve at half-maximal effect.
SMILES,"activity change, positive = activation",Potency
CCOC(=O)c1c(-c2ccccc2)oc2ccc(N(C(C)=O)S(=O)(=O)c3ccc(CC)cc3)cc12,inactive: -22%,
OC(CCN1CCCCC1)(c1ccccc1)C1CCCCC1 (configuration not stated),inactive: -10.6%,
O=C(COc1ccccc1-c1nc(-c2ccccc2)no1)Nc1cccc([N+](=O)[O-])c1,inactive: -10.9%,
COc1cccc(CNC(=O)c2ccc(-c3nc(COc4ccccc4)c(C)o3)cc2)c1,inactive: -3.95%,
Cc1ccc(CCNC(=O)c2cc3c(s2)-c2c(C)cccc2OC3)cc1,inactive: -12%,
CCOc1ccc(C2CC(c3c(O)n(C4CCCCC4)c(=O)[nH]c3=O)=Nc3ccccc3S2)cc1 (configuration not stated),inactive: -65.4%,
Cc1ccc2nc(COc3ccccc3NC(=O)C(C)(C)C)cc(=O)n2c1,inactive: -10.7%,
O=C(Nc1sc2c(c1C(=O)NCc1cccnc1)CCCC2)c1cc(=O)c2ccccc2o1,inactive: 13.3%,
Cc1ccc(NS(=O)(=O)c2ccc(-n3cccn3)cc2)cc1Cl,inactive: -31.8%,
O=C(Cc1ccc(F)cc1)NCc1ccc2c(c1)CCN2C(=O)c1ccc(F)cc1,inactive: -21.6%,
CCOC(=O)N1CCc2c(sc3c2c(=O)n(-c2ccccc2C(F)(F)F)c(=O)n3Cc2ccccc2C)C1,inactive: -44%,
COc1cccc(-n2c(SCC(=O)Nc3c(C)cc(C)cc3C)nc3c([nH]c4ccccc43)c2=O)c1,inactive: -35.8%,
COc1cccc2c1cc1c(=O)n(CC(=O)NCc3ccc(C)o3)nc(C)n12,inactive: -3.45%,
O=C(Nc1c(C(=O)N2CCC(N3CCCCC3)CC2)oc2ccccc12)c1c(F)cccc1F,inactive: -9.19%,
Cn1cc(S(=O)(=O)c2ccccc2)c(=O)c2cc(F)c(N3CCN(c4ccc(F)cc4)CC3)cc21,inactive: -18.3%,
Cc1ccc(-c2nnc(Nc3ccc(Cl)cc3)c3ccccc23)cc1S(=O)(=O)N1CCOCC1,inactive: -16.5%,
CN(C)S(=O)(=O)c1ccc2c(c1)N(CC(=O)N1CCCCC1)CCS2,inactive: -7.7%,
CCCCOc1c(C(=O)c2c(F)cc(C)cc2F)cnc2n[nH]cc12,inactive: -18.1%,
COc1ccc(CNC(=O)CCc2nc3cccnc3n2Cc2ccccc2)cc1,inactive: -2.76%,
Cc1ccc(Cl)cc1N1CCN(C(=O)c2cn(C)c3ccc(S(=O)(=O)N(C)C4CCCCC4)cc3c2=O)CC1,inactive: 0.244%,
CCOc1ccc(CCNC(=O)C(C)n2nc(C)n3c(cc4occc43)c2=O)cc1OCC (configuration not stated),inactive: -13.3%,
CC(=O)Nc1ccc(NC(=O)C(Cc2ccccc2)N2Cc3ccccc3C2=O)cc1 (configuration not stated),inactive: -18.8%,
Cc1cccc(N2CCN(C(=O)c3c(C)oc4nc(C)nc(N5CCCC5)c34)CC2C)c1 (configuration not stated),inactive: -27.4%,

SMILES,"activity change, positive = activation",Potency
Cc1ccc(NC(=O)Cn2c(=O)n(CCC(=O)NCCc3ccccc3)c(=O)c3ccccc32)cc1,inactive: -5.22%,
O=C(Cn1cnc(S(=O)(=O)N2CCCC2)c1)Nc1ccccc1,inactive: -8.27%,
COc1cccc(-n2c(SCC(=O)N3CCCCC3)nc3c([nH]c4ccccc43)c2=O)c1,inactive: -17.3%,
COc1ccc(NC(=O)c2cc3c([nH]c2=O)CC(c2ccccc2)CC3=O)cc1 (configuration not stated),inactive: -2.55%,
CCCOc1ccc(OC(=O)c2c(-c3ccccc3Cl)noc2C)cc1,inactive: -2.49%,
COc1ccc(NC(=O)Cn2c(=O)n(-c3ccc(CC(=O)NCC4CCCO4)cc3)c(=O)c3ccccc32)c(OC)c1 (configuration not stated),inactive: -9.42%,
COc1ccc(C2=Nn3c(nc4sc(C(=O)Nc5cccc(C)c5)c(C)c4c3=O)SC2)cc1,inactive: -1.68%,
COc1ccc(NC(=O)c2ccc3c(c2)c(C)c(C)n3Cc2ccc(F)cc2)c(OC)c1,inactive: -28.1%,
COc1cccc(CN2C(=O)c3ccccc3Sc3ccc(C(=O)NCCc4ccc(Cl)cc4)cc32)c1,inactive: -7.96%,
COc1ccc(-c2nn3c(-c4ccc(C)cc4)nnc3c3ccccc23)cc1,inactive: -9.1%,
CCc1ccc(OCC(=O)N(Cc2ccco2)Cc2ccco2)cc1,inactive: -8.78%,
COc1ccccc1NC(=O)CCn1nc(-c2ccccc2)c2ccccc2c1=O,inactive: -33%,
O=C(C1CCN(c2nc3ccccc3[nH]2)CC1)N1CCN(c2ccccc2)CC1,inactive: -14.8%,
COc1nc(-c2ccc3c(c2)OCO3)n(-c2ccc(NC(=O)CSc3ccccc3)cc2)n1,inactive: 1.39%,
Cc1cc(C)cc(OCc2cc(=O)n3cc(C)sc3n2)c1,inactive: -6.68%,
Cc1cccc(NCc2nnc3n2CCCCC3)c1C,inactive: -12.7%,
CN(C(=O)c1ccc2c(c1)N(Cc1ccccc1F)C(=O)c1ccccc1S2)C1CCCCC1,inactive: -14.6%,
COc1ccccc1N1CCN(c2nc3ccc(C)cc3nc2-n2nc(C)cc2C)CC1,inactive: -30.1%,
CCOC(=O)c1c(C)n(-c2ccccc2)c2ccc(OC(=O)c3ccc(OCC)c(OCC)c3)cc12,inactive: -26.7%,
Cc1cccc(-c2noc(-c3ccc(NCC4CCCO4)c([N+](=O)[O-])c3)n2)c1 (configuration not stated),inactive: 7.43%,
Cc1ccccc1OCCSc1nc(C)c(Cc2ccccc2)c(=O)[nH]1,inactive: -29.8%,
COc1ccc(-c2nn(C)c3sc(C(=O)N4CCN(c5ccccc5F)CC4)cc23)cc1OC,inactive: -15.9%,
COc1cccc(CNC(=O)C(C)n2ccc3cc(S(=O)(=O)N4CCCCCC4)ccc32)c1 (configuration not stated),inactive: -30.4%,

SMILES,"activity change, positive = activation",Potency
COc1ccccc1-c1cc(NC(=O)COc2ccccc2Cl)n(-c2ccccc2)n1,inactive: 7.95%,
Cc1ccc(-c2[nH]c3ccccc3c2SCCNC(=O)c2ccc(S(=O)(=O)N3CCOCC3)cc2)cc1,inactive: -28%,
Cc1cccc2c1-c1sc(C(=O)NCCc3ccc(Cl)cc3)cc1CO2,inactive: -23.3%,
Cc1ccc(C)c(CN2C(=O)c3ccccc3Sc3ccc(C(=O)NCc4cccs4)cc32)c1,inactive: -28.6%,
CC(=O)c1cccc(NC(=O)c2noc3c2CSc2ccccc2-3)c1,,active: 1.41 µM
COc1ccc(NC(=O)c2c(N)c(C(=O)c3ccc(C)cc3)n3ccccc23)cc1OC,inactive: 10.8%,
Cc1cc(C)c2c(-n3cccc3)c(C(=O)NCCCN3CCCCC3)sc2n1,inactive: -9.01%,
Cc1ccc(C)c(NC(=O)C2CCN(c3nn4c(=O)cc(C)nc4s3)CC2)c1,inactive: -7.83%,
CCN1CCN(Cc2nc3cc(NC(=O)c4ccccc4[N+](=O)[O-])ccc3n2CC)CC1,inactive: -8.81%,
COc1ccc(NC(=O)c2ccc3c(c2)c(C)c(C)n3Cc2ccc(F)cc2)cc1,inactive: -36.7%,
O=C(CCc1ccccc1)NCCc1csc(-c2cccc(F)c2)n1,inactive: -11.9%,
Cc1cc(C)cc(NC(=O)CN2C(=O)COc3ccc(S(=O)(=O)Nc4ccccc4)cc32)c1,inactive: -26.8%,
Cc1cn(C)c(CC(=O)NCc2ccc(F)cc2)c1C(=O)O,inactive: -9.19%,
COc1ccc2c(c1)c1c(c(=O)n(-c3cccc(C)c3)c(=O)n1CC(=O)Nc1c(C)cc(C)cc1C)n2C,inactive: -5.39%,
CCc1cccc(NC(=O)CNS(=O)(=O)c2ccc3nc(C)sc3c2)c1,inactive: -9.39%,
CCOC(=O)c1ccccc1NC(=O)CSc1nc2ncccc2o1,inactive: -9.28%,
CC1=C(c2ccc(C)cc2)S(=O)(=O)N=C1N1CCN(c2ccccc2)CC1,inactive: -2.67%,
CNC(=O)c1cccc(-c2ccc3c(N4CCOC[C@H]4C)nc(N4CCOC[C@H]4C)nc3n2)c1,inactive: -27.5%,
Cc1ccc(CSC2=Nc3ccccc3C3=NC(CC(=O)NC4CCCCC4)C(=O)N23)c(C)c1 (configuration not stated),inactive: -1.19%,
Cc1ccc(NS(=O)(=O)c2ccc3c4c(cccc24)C(=O)N3)c(C)c1,inactive: -19.7%,
CN(Cc1ccccc1)S(=O)(=O)c1ccc(F)c(C(=O)Nc2ccccc2C(F)(F)F)c1,inactive: -19.2%,
Cc1ccc(C(NC(=O)Cc2cccs2)C(=O)Nc2ccc(C(C)C)cc2)cc1 (configuration not stated),inactive: 14%,
Cc1cc(Nc2cccc(C(F)(F)F)c2)ncn1,inactive: -11.2%,

SMILES,"activity change, positive = activation",Potency
O=C(COc1ccccc1)N(Cc1cccnc1)c1nc2ccc(Cl)cc2s1,inactive: 25.1%,
O=C(Nc1ccc(N2CCC(N3CCCCC3)CC2)c(C(=O)O)c1)c1ccccc1,inactive: 17.8%,
CNS(=O)(=O)c1cn(CC(=O)N2CCN(c3ccc(OC)cc3)CC2)cc1S(=O)(=O)NC,inactive: -4.97%,
COc1cccc(CNC(=O)CN2C(=O)CSc3ccc(S(=O)(=O)N(C)C)cc32)c1,inactive: 4.78%,
Cc1ccc(-c2nc3sccn3c2Nc2ccccc2C)cc1,inactive: -4.22%,
CC1CCN(C(=O)c2cnn(-c3ccc(Cl)cc3)c2C2CCN(C(=O)OC(C)(C)C)CC2)CC1,inactive: -11.2%,
Cc1c(C(=O)OC2CCCC2)[nH]c2c1C(=O)CC(c1ccc(C(C)(C)C)cc1)C2 (configuration not stated),inactive: 1.9%,
CC(C)(C)C1CCc2c(sc(NC(=O)c3cccc(Cl)c3)c2C(N)=O)C1 (configuration not stated),inactive: -15.7%,
CSCCC(NS(=O)(=O)c1ccc2c(c1)oc(=O)n2C)C(=O)N1CCN(c2cc(Cl)ccc2C)CC1 (configuration not stated),inactive: -29.4%,
CCC(=O)Oc1c(Sc2ccc(Cl)cc2)c(C)nn1C(C)(C)C,inactive: -29%,
COc1ccc(NC(=O)CSc2oc(-c3ccc(C)cc3)nc2S(=O)(=O)c2ccc(C)cc2)c(OC)c1,inactive: -5.78%,
CCN(CCCNC(=O)c1cc2cc3cc(OC)ccc3nc2s1)c1cccc(C)c1,inactive: 1.66%,
Cc1cc2c(cc3c(SCc4ccc(Cl)cc4)nnc(C)n32)o1,inactive: -6.1%,
Cc1cccc(N2CCN(C(=O)c3nn(C)c4c3CSc3ccccc3-4)CC2C)c1 (configuration not stated),inactive: -10.3%,
COC(=O)c1ccccc1NC(=O)c1cc2nc(-c3ccccc3)cc(-c3ccccc3)n2n1,inactive: -2.24%,
Cc1ccccc1C(=O)NCC(c1cccnc1)N1CCc2ccccc21 (configuration not stated),inactive: -16.8%,
CCOC(=O)c1c(C)sc(-c2c(-c3ccc4c(c3)OCCO4)[nH]c3c2c(=O)[nH]c(=O)n3C)c1O,inactive: -35.8%,
COc1ccc(NC(=O)C2(c3cccs3)CCOCC2)cc1Cl,inactive: -18.6%,
COc1cccc(N2CCN(C(=O)c3c(C)oc4ncnc(N5CCCCC5)c34)CC2)c1,inactive: -29.3%,
COC(=O)CCCCC(CCSS/C(CCO)=C(\C)N(C=O)Cc1cnc(C)nc1N)SC(C)=O (configuration not stated),inactive: -3.75%,
Cc1ccc(-c2nnc(Nc3ccc(O)cc3)c3ccccc23)cc1S(=O)(=O)NCc1nc2ccccc2[nH]1,"inactive: 11.8% [at 11.5 µM, percent change from vehicle, -100% = no light]",
COc1cccc(-n2c(=O)c3sc4ccccc4c3n(CC(=O)Nc3ccc(F)cc3F)c2=O)c1,inactive: -15.6%,
CC(C)CN(CCCNC(=O)CN1C(=O)COc2ccc(S(=O)(=O)N3CCCCCC3)cc21)CC(C)C,inactive: -9.88%,
